The source of these data is the supplement of paper PMC4604168 (melanoma cell lines).

Each structure is given as a SMILES string. The list shows a part of the results. Many values rest on one well or one pass, so single values are uncertain.
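Also: cell number obtained by counting DAPI-stained nuclei in high-throughput microscope images with image analysis software, screen run in 1,536-well plates.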

In the experiment the test system is COLO792. Kind of experiment: cell count relative to DMSO control; melanoma cells; higher = more viable cells. The settings on record: library dose: low library concentration; 72 h.
The compound `N#CC[C@H](C1CCCC1)n1cc(-c2ncnc3[nH]ccc23)cn1` [ruxolitinib] + OCCn1cc(-c2cnc3nnn(Cc4ccc5ncccc5c4)c3n2)cn1 [PF04217903] (first compound 1 µM, partner dose 1 µM) displayed a cell count of 94.1%.

With `N#CC[C@H](C1CCCC1)n1cc(-c2ncnc3[nH]ccc23)cn1` [ruxolitinib] + NCC(=O)Nc1ccc(-n2nc(C(F)(F)F)cc2-c2ccc3c(ccc4ccccc43)c2)cc1 [OSU03012] (first compound 1 µM, partner dose 1 µM), the cell count worked out at 87.3%.

`N#CC[C@H](C1CCCC1)n1cc(-c2ncnc3[nH]ccc23)cn1` [ruxolitinib] + O=C(O)c1ccc(-c2c[nH]c3ncc(-c4ccccc4)cc23)cc1C1CCCC1 [GSK650394] (first compound 1 µM, partner dose 0.16 µM) came in with a cell count of 107%.

On to `N#CC[C@H](C1CCCC1)n1cc(-c2ncnc3[nH]ccc23)cn1` [ruxolitinib] + CN(C)S(=O)(=O)c1ccc2c(c1)/C(=C/c1cc3c([nH]1)CCCC3)C(=O)N2 [SU6656] (first compound 1 µM, partner dose 0.4 µM), for which the cell count came out at 95.4%.

With `Cc1cc(Nc2cc(N3CCN(C)CC3)nc(Sc3ccc(NC(=O)C4CC4)cc3)n2)n[nH]1` [Tozasertib] + Cc1cc(N2CCOCC2)cc2[nH]c(-c3c(NC[C@@H](O)c4cccc(Cl)c4)cc[nH]c3=O)nc12 [BMS536924] (first compound 0.006 µM, partner dose 0.2 µM), the cell count stood at 83%.
